Data reported in the supplement of paper PMC10502849.
Where a name gives a salt, the structure may show the parent alone. The list shows a part of the results. Repeats are few or missing, and single values can be far off.

Columns and labels:
[1] = system: H9 teratoma-derived LAM model cells, TSC2-/-; assay: percent SyTOX+ dead cells; higher = more cytotoxic; conditions: 5 µM, treatment time 72 h, culture: 3D hyaluronic acid hydrogel
[2] = system: H9 teratoma-derived LAM model cells, WT; assay: percent SyTOX+ dead cells; higher = more cytotoxic; conditions: 5 µM, treatment time 72 h, culture: 3D hyaluronic acid hydrogel, genotype: WT
[3] = system: H9 teratoma-derived LAM model cells, TSC2-/-; assay: percent of cells invaded past median invasion distance of vehicle control; LAM is lymphangioleiomyomatosis; the cells come from teratomas of the human stem cell line H9; higher = more invasion; extreme values may be limits of the assay; conditions: 5 µM, treatment time 72 h, culture: 3D hyaluronic acid hydrogel
[4] = system: H9 teratoma-derived LAM model cells, WT; assay: as above; conditions: 5 µM, treatment time 72 h, culture: 3D hyaluronic acid hydrogel, genotype: WT
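Wherever percent SyTOX+ dead cells is given: cells seeded atop a hyaluronic acid gel crosslinked via MMP-cleavable peptides, containing vitronectin peptides and methylcellulose, imaged live by high-content microscopy with automated analysis, one technical replicate per compound.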
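Wherever percent of cells invaded past median invasion distance of vehicle control is given: live cells imaged by high content microscopy and scored with in-house automated image analysis, one technical replicate per compound in each genotype and rapamycin condition.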

Row | SMILES | percent SyTOX+ dead cells ([1]; rapamycin 0 nM) [%] | percent SyTOX+ dead cells ([1]; rapamycin 20 nM) [%] | percent SyTOX+ dead cells ([2]; rapamycin 0 nM) [%] | percent SyTOX+ dead cells ([2]; rapamycin 20 nM) [%] | percent ([3]; rapamycin 0 nM) [%] | percent ([3]; rapamycin 20 nM) [%] | percent ([4]; rapamycin 0 nM) [%] | percent ([4]; rapamycin 20 nM) [%]
1 | Cc1cc(Nc2ncc3cc(-c4c(Cl)cccc4Cl)c(=O)n(C)c3n2)ccc1F | 24.8 | 29.4 | 69 | 39.5 | 0.78 | 3.5 | 0 | 0
2 | COc1cc2ncnc(Nc3ccc(Cl)cc3F)c2cc1OC | 26.8 | 16.5 | 22.9 | 23.4 | 12.3 | 17.7 | 16 | 4.46
3 | CC(C)C[C@H](NC(=O)[C@H](CCc1ccccc1)NC(=O)CN1CCOCC1)C(=O)N[C@@H](Cc1ccccc1)C(=O)N[C@@H](CC(C)C)C(=O)[C@@]1(C)CO1 [Carfilzomib, PR-171, ONO-7057] | 45.3 | 46.8 | 22.4 | 14 | 1.04 | 3.65 | 3.17 | 1.3
4 | CC(C)CC(=O)Nc1n[nH]c2c1CN(C(=O)C1CCN(C)CC1)C2(C)C | 18.9 | 6.2 | 12.8 | 12.4 | 61 | 70.7 | 77.4 | 66.1
5 | c1ccc2c(-c3cnn4cc(-c5ccc(N6CCNCC6)cc5)cnc34)ccnc2c1 | 7.39 | 4.89 | 22.9 | 16.9 | 96.9 | 66.3 | 44.6 | 11.8
6 | Cc1ccccc1C(=O)c1ccc(Nc2ccc(Br)cc2N)cc1Cl | 18.7 | 11.2 | 16.3 | 29.4 | 17.4 | 20.1 | 10.6 | 8.54
7 | Oc1cccc(-c2nc(N3CCOCC3)c3sccc3n2)c1 [PI3-Kinase a Inhibitor 2] | 16.4 | 8.67 | 31 | 29.9 | 18.4 | 45.1 | 12.7 | 21.7
8 | CCc1cccc(CC)c1NC(=O)N1Cc2[nH]nc(NC(=O)c3ccc(N4CCN(C)CC4)cc3)c2C1 | 22.6 | 14.3 | 52.4 | 42.6 | 44.6 | 33.9 | 22.5 | 13.7
9 | COc1ccc(COc2ccc(Cc3cnc(N)nc3N)cc2OC)cc1 | 7.1 | 9.83 | 26.9 | 16.2 | 65 | 35.3 | 5.13 | 34.2
10 | CC1(C)CNc2cc(NC(=O)c3cccnc3NCc3ccncc3)ccc21 [Motesanib diphosphate salt, AMG-706] | 8.33 | 17.2 | 25.6 | 18.3 | 18.5 | 26.9 | 8 | 15.7
11 | Cc1ccc(S(=O)(=O)Nc2nc3ccccc3nc2Nc2ccc3nsnc3c2)cc1 | 7.27 | 10.8 | 13.9 | 8.17 | 29.8 | 17.7 | 33.6 | 38
12 | COc1cccc2c1C(=O)c1c(O)c3c(c(O)c1C2=O)C[C@@](O)(C(C)=O)C[C@@H]3O[C@H]1C[C@H](NC(=O)C(F)(F)F)[C@H](O)[C@H](C)O1 [N-(Trifluoroacetyl)daunorubicin] | 68.5 | 77.3 | 76.3 | 70.6 | 19.4 | 23.3 | 52.2 | 42.2
13 | O=C(NC(NC(=S)Nc1ccc(F)c([N+](=O)[O-])c1)C(Cl)(Cl)Cl)C(c1ccccc1)c1ccccc1 (stereo unspecified) | 58.1 | 62.5 | 62.2 | 56.1 | 0.27 | 10.6 | 0 | 1.31
14 | O=c1[nH]ccc2c(S(=O)(=O)N3CCCNCC3)cccc12 [HA 1100 hydrochloride, Hydroxyfasudil] | 6.12 | 10.7 | 7.78 | 11.6 | 16.3 | 24.8 | 19.3 | 19.4
15 | O=C(Nc1ccccc1-c1cn2c(CN3CC[C@@H](O)C3)csc2n1)c1ccc2ccccc2c1 | 7.89 | 4.76 | 17.2 | 6.11 | 63.2 | 57.9 | 50 | 25.3
16 | CC(C)C(=O)SCCCCCCC(=O)Nc1nc(-c2ccccc2)cs1 | 22.8 | 20.4 | 22 | 28.2 | 56.4 | 62.8 | 54.8 | 66.3
17 | COc1ccc(CNC(=O)Nc2ncc([N+](=O)[O-])s2)cc1 | 21.6 | 16.2 | 10.2 | 8.09 | 46.8 | 29.3 | 28.5 | 13.3
18 | COc1cc2c(cc1OC)-c1[nH]nc(Nc3cccc(F)c3)c1C2 | 20.7 | 32.6 | 31.4 | 33.7 | 39.1 | 40.1 | 0 | 0
19 | Cc1cc(Nc2cc(CN3CCOCC3)c3nc(C)c(Cc4ccc(Cl)cc4F)n3n2)n[nH]1 | 57.5 | 47.7 | 69.8 | 82.5 | 0 | 3.18 | 0.49 | 0
20 | O=c1c(O)c(-c2ccc(O)c(O)c2)oc2cc(O)cc(O)c12 [Quercetin] | 10.7 | 14.2 | 26.1 | 15.1 | 54.1 | 29 | 6.15 | 15.1
21 | Cc1[nH]c2ccccc2c1CCNCc1ccc(/C=C/C(=O)NO)cc1 [LBH-589, Panobinostat, NVP-LBH589, LBH589] | 25.1 | 21.6 | 24.2 | 3.99 | 2.95 | 4.1 | 0 | 3.68

Row | SMILES | percent SyTOX+ dead cells ([1]; rapamycin 0 nM) [%] | percent SyTOX+ dead cells ([1]; rapamycin 20 nM) [%] | percent SyTOX+ dead cells ([2]; rapamycin 0 nM) [%] | percent SyTOX+ dead cells ([2]; rapamycin 20 nM) [%] | percent ([3]; rapamycin 0 nM) [%] | percent ([3]; rapamycin 20 nM) [%] | percent ([4]; rapamycin 0 nM) [%] | percent ([4]; rapamycin 20 nM) [%]
22 | Cc1csc(NC(=O)CSc2nc3c(c(C(F)(F)F)c2C#N)CCC3)n1 [Irestatin 9389] | 14 | 8.64 | 13.8 | 13.7 | 66.7 | 42.3 | 19.1 | 29.7
23 | CN(C)C(=S)NN=C(c1ccccn1)c1ccccn1 | 14.3 | 22 | 37.1 | 30.1 | 12.6 | 16 | 5.91 | 10.2
24 | O=C(Nc1ccc(-c2cn[nH]c2)cc1)C1COc2ccccc2O1 (stereo unspecified) [Rho Kinase Inhibitor V] | 14.7 | 23.5 | 20.7 | 21.3 | 0 | 1.18 | 0 | 2.67
25 | Cc1cc(N2CCOCC2)cc2[nH]c(-c3c(NC[C@@H](O)c4cccc(Cl)c4)cc[nH]c3=O)nc12 | 27 | 14.5 | 38.6 | 29.5 | 21.9 | 37.6 | 24 | 46.1
26 | COc1cc2ncnc(Nc3ccc(O)c(Br)c3)c2cc1OC | 14.8 | 20 | 24.9 | 25.6 | 19.9 | 10.8 | 23.4 | 8.81
27 | N#CC(c1ccnc(NCCc2cccnc2)n1)c1nc2ccccc2s1 (stereo unspecified) | 13 | 14.4 | 11 | 9.83 | 6.51 | 41.3 | 13.8 | 37.2
28 | Cc1ccc2c(=O)c3ccccc3n(CCCN)c2c1C | 9.94 | 9.62 | 33.6 | 10.5 | 9.32 | 9.21 | 1.77 | 14.5
29 | COCC[n+]1c2c(n(Cc3cnccn3)c1C)C(=O)c1ccccc1C2=O [YM-155, YM155, Sepantronium bromide] | 66.9 | 65.6 | 65.7 | 33.3 | 23.8 | 7.29 | 4.04 | 0
30 | CCn1c(=O)c(-c2cc[nH]n2)cc2c(C)nc(N)nc21 | 5.22 | 3.8 | 8.74 | 11.2 | 93 | 60.8 | 77.1 | 44.6
31 | O=c1ncn2nc(Sc3ccc(F)cc3F)ccc2c1-c1c(Cl)cccc1Cl | 2.2 | 0 | 5.66 | 3.79 | 85.2 | 67.7 | 80.5 | 55
32 | CC(C)(N)c1ccc(-c2nc3ccccc3nc2-c2ccccc2)cc1 | 8.03 | 11.2 | 15.4 | 9.11 | 39 | 28.4 | 26.6 | 40.9
33 | C[C@@]1(C(=O)Nc2ccc(F)nc2)CCCN1c1nc(Nc2cc(C3CC3)n[nH]2)c2cccn2n1 | 18.1 | 40.9 | 37 | 50.2 | 65.4 | 44.5 | 61.4 | 43.8
34 | c1ccc(-c2[nH]ncc2-c2ccnc3ccccc23)nc1 | 10.3 | 19.1 | 20.8 | 11.9 | 40.2 | 23 | 19.6 | 22
35 | Nc1nc(Nc2ccc(S(N)(=O)=O)cc2)nn1C(=S)Nc1c(F)cccc1F [Cdk1/2 Inhibitor III] | 38.7 | 32.4 | 22.7 | 39.2 | 0.67 | 10.8 | 0 | 0.42
36 | Nc1nc(F)nc2c1ncn2[C@@H]1O[C@H](CO)[C@@H](O)[C@@H]1O | 12.1 | 13.3 | 17.9 | 12 | 37.9 | 40.5 | 39.5 | 38
37 | Cc1cc([C@@H](C)Nc2ccccc2C(=O)O)c2nc(N3CCOCC3)cc(=O)n2c1 | 5.93 | 5.41 | 29.9 | 20.8 | 51.7 | 36.9 | 63 | 27
38 | O=c1c(-c2ccc(O)cc2)coc2cc(O)cc(O)c12 [Genistein] | 10.2 | 10.6 | 16.9 | 11.7 | 15.1 | 13.3 | 28.5 | 16
39 | CN(C)S(=O)(=O)c1ccc2c(c1)/C(=C/c1cc3c([nH]1)CCCC3)C(=O)N2 | 61.3 | 61 | 60.1 | 59.3 | 51.1 | 24.7 | 41.8 | 10.8
40 | Cc1csc(-c2nnc(Nc3ccc(Oc4ncccc4-c4ccnc(N)n4)cc3)c3ccccc23)c1 | 15 | 5.73 | 13 | 9.63 | 39.9 | 82.4 | 38.4 | 63
41 | Cc1cc(I)ccc1Nc1c(C(=O)NOCC2CC2)cc(F)c(F)c1F | 36.1 | 42.7 | 46.8 | 55.2 | 43.5 | 38.3 | 9.54 | 8.81
42 | Cc1ccc(NC(=O)c2ccc(CN3CCN(C)CC3)cc2)cc1Nc1nc(-c2cccnc2)cs1 [Masitinib mesylate, AB1010, AB-1010] | 33.6 | 16.9 | 18 | 27.1 | 34.4 | 29.1 | 4 | 36.1
